# In the supplement of paper PMC8728848:
# Some of the results follow.
# Tests used:
# Test in all cases: glycan array binding signal (z-score within array); higher = stronger binding
# Conditions in all cases: glycan notation: IUPAC condensed, linker removed
# [1] = biological target: GlcNAc(b1-4)GlcNAc(b1-4)GlcNAc(b1-4)GlcNAc(b1-4)GlcNAc(b1-4)GlcNAc
# Outline: (§1)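 Columns mapping to the same glycan were averaged after glycan names were converted to IUPAC-condensed notation. The data come from 3228 arrays in the Consortium for Functional Glycomics database, limited to those with an available protein sequence. Binding is reported as a within-array Z-score averaged across arrays of one protein sequence and across linkers.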
# [2] = biological target: GlcNAc(b1-4)[GlcNAc(b1-6)]GalNAc
# Outline: as §1
# [3] = biological target: GlcNAc(b1-6)Gal(b1-4)GlcNAc
# Outline: as §1
# GlcNAc(b1-6)GalNAc = biological target: GlcNAc(b1-6)GalNAc
# Outline: as §1
# [4] = biological target: GlcNAc6S(b1-3)Gal(b1-4)GlcNAc
# Outline: as §1
# Kdn(a2-3)Gal(b1-3)GalNAc = biological target: Kdn(a2-3)Gal(b1-3)GalNAc
# Outline: as §1
# Kdn(a2-3)Gal(b1-3)GlcNAc = biological target: Kdn(a2-3)Gal(b1-3)GlcNAc
# Outline: as §1
# Kdn(a2-3)Gal(b1-4)Glc = biological target: Kdn(a2-3)Gal(b1-4)Glc
# Outline: as §1
# Kdn(a2-3)Gal(b1-4)GlcNAc = biological target: Kdn(a2-3)Gal(b1-4)GlcNAc
# Outline: as §1
# [5] = biological target: Kdn(a2-3)Gal(b1-4)[Fuc(a1-3)]GlcNAc
# Outline: as §1
# Kdn(a2-6)Gal(b1-4)GlcNAc = biological target: Kdn(a2-6)Gal(b1-4)GlcNAc
# Outline: as §1
# [6] = biological target: Man(a1-2)Man(a1-2)Man(a1-3)Man
# Outline: as §1
# [7] = biological target: Man(a1-2)Man(a1-2)Man(a1-6)[Man(a1-3)]Man
# Outline: as §1
# Man(a1-2)Man(a1-3)Man = biological target: Man(a1-2)Man(a1-3)Man
# Outline: as §1
# [8] = biological target: Man(a1-2)Man(a1-3)[Man(a1-2)Man(a1-6)]Man
# Outline: as §1
# [9] = biological target: Man(a1-2)Man(a1-3)[Man(a1-2)Man(a1-6)]Man(a1-6)[Man(a1-2)Man(a1-2)Man(a1-3)]Man
# Outline: as §1
# [10] = biological target: Man(a1-2)Man(a1-3)[Man(a1-2)Man(a1-6)]Man(a1-6)[Man(a1-2)Man(a1-2)Man(a1-3)]Man(b1-4)GlcNAc(b1-4)GlcNAc
# Outline: as §1
# [11] = biological target: Man(a1-2)Man(a1-3)[Man(a1-6)]Man(a1-6)[Man(a1-2)Man(a1-3)]Man(b1-4)GlcNAc(b1-4)GlcNAc
# Outline: as §1
# [12] = biological target: Man(a1-2)Man(a1-6)[Man(a1-3)]Man(a1-6)[Man(a1-2)Man(a1-2)Man(a1-3)]Man
# Outline: as §1
# [13] = biological target: Man(a1-2)Man(a1-6)[Man(a1-3)]Man(a1-6)[Man(a1-2)Man(a1-2)Man(a1-3)]Man(b1-4)GlcNAc(b1-4)GlcNAc
# Outline: as §1
# Man(a1-3)[Man(a1-6)]Man = biological target: Man(a1-3)[Man(a1-6)]Man
# Outline: as §1
# [14] = biological target: Man(a1-3)[Man(a1-6)]Man(a1-6)[Man(a1-2)Man(a1-3)]Man(b1-4)GlcNAc(b1-4)GlcNAc
# Outline: as §1
# [15] = biological target: Man(a1-3)[Man(a1-6)]Man(a1-6)[Man(a1-3)]Man
# Outline: as §1
# [16] = biological target: Man(a1-3)[Man(a1-6)]Man(a1-6)[Man(a1-3)]Man(b1-4)GlcNAc(b1-4)GlcNAc
# Outline: as §1
# [17] = biological target: Man(a1-3)[Man(a1-6)]Man(b1-4)GlcNAc(b1-4)GlcNAc
# Outline: as §1
# [18] = biological target: Man(a1-3)[Man(a1-6)]Man(b1-4)GlcNAc(b1-4)[Fuc(a1-6)]GlcNAc
# Outline: as §1
# Man(a1-6)Man = biological target: Man(a1-6)Man
# Outline: as §1
# Man(b1-4)GlcNAc = biological target: Man(b1-4)GlcNAc
# Outline: as §1
# MurNAc(b1-4)GlcNAc = biological target: MurNAc(b1-4)GlcNAc
# Outline: as §1
# Neu5Ac(a2-3)Gal = biological target: Neu5Ac(a2-3)Gal
# Outline: as §1
# [19] = biological target: Neu5Ac(a2-3)Gal(b1-3)GalNAc
# Outline: as §1
# [20] = biological target: Neu5Ac(a2-3)Gal(b1-3)GalNAc(b1-3)Gal(a1-4)Gal(b1-4)Glc
# Outline: as §1
# [21] = biological target: Neu5Ac(a2-3)Gal(b1-3)GalNAc(b1-4)[Neu5Ac(a2-3)]Gal(b1-4)Glc
# Outline: as §1
# [22] = biological target: Neu5Ac(a2-3)Gal(b1-3)GalNAc(b1-4)[Neu5Ac(a2-8)Neu5Ac(a2-3)]Gal(b1-4)Glc
# Outline: as §1
# [23] = biological target: Neu5Ac(a2-3)Gal(b1-3)GalNAc6S
# Outline: as §1
# [24] = biological target: Neu5Ac(a2-3)Gal(b1-3)GlcNAc
# Outline: as §1
# [25] = biological target: Neu5Ac(a2-3)Gal(b1-3)GlcNAc(b1-2)Man
# Outline: as §1
binder,measurement,setting,value
PX9937A-bvu-521-23-521 (Bacteroides vulgatus) (protein) LDLAPEDYYGAGNFWKEASQPKAFMLGLHAQLRSYYDMFYTLGELRGGTQRVGTSSLNTSLNYADIRSQNISEDIPGISNWNGLYSPIMQVNHFIQEVENGCTFLDDATRSRYLGQAYGMRALYYFMLYRTFGGVPLITKVDILDGKPSADKFYVERATPEATMEFIKADINKSENYFGNNTSFDAYDWSRYATLMLKAEIYMWAAKVSITGFTATGATDLQTAKTALSGIIGHFELMDNFASIFSCDNKKNTEIIFAMPFIEGEASNDGGRFLYQDAVFLGQAYGRNGKVIEKDTLNLKGTGGVFRDEYTEDFWKTFKEGDSRRDATFMEYYMKNDNGTLSEFGCVMKKRIGTINSNDNRIYISDIPVYRYADALLMMAEIENGLNNPCASYINEVRKRAYGDTFEENKYTEGSYAENELAILQERDKEFVSEGKRWFDVLRMHDASGRSLVFSANANYPGTNPILGTEEAYKMLWPVNIGTLNVNPLLTQTPGYGKK,glycan array binding signal (z-score),[1],-0.131
same,glycan array binding signal (z-score),[2],-0.368
same,glycan array binding signal (z-score),[3],1.73
same,glycan array binding signal (z-score),GlcNAc(b1-6)GalNAc,-0.127
same,glycan array binding signal (z-score),[4],0.188
same,glycan array binding signal (z-score),Kdn(a2-3)Gal(b1-3)GalNAc,2.84
same,glycan array binding signal (z-score),Kdn(a2-3)Gal(b1-3)GlcNAc,-0.441
same,glycan array binding signal (z-score),Kdn(a2-3)Gal(b1-4)Glc,-0.287
same,glycan array binding signal (z-score),Kdn(a2-3)Gal(b1-4)GlcNAc,-0.653
same,glycan array binding signal (z-score),[5],-0.421
same,glycan array binding signal (z-score),Kdn(a2-6)Gal(b1-4)GlcNAc,-0.698
same,glycan array binding signal (z-score),[6],-0.541
same,glycan array binding signal (z-score),[7],-0.275
same,glycan array binding signal (z-score),Man(a1-2)Man(a1-3)Man,0.085
same,glycan array binding signal (z-score),[8],-0.412
same,glycan array binding signal (z-score),[9],-0.213
same,glycan array binding signal (z-score),[10],-0.427
same,glycan array binding signal (z-score),[11],-0.525
same,glycan array binding signal (z-score),[12],-0.338
same,glycan array binding signal (z-score),[13],-0.204
same,glycan array binding signal (z-score),Man(a1-3)[Man(a1-6)]Man,-0.427
same,glycan array binding signal (z-score),[14],-0.406
same,glycan array binding signal (z-score),[15],-0.289
same,glycan array binding signal (z-score),[16],-0.628
same,glycan array binding signal (z-score),[17],-0.247
same,glycan array binding signal (z-score),[18],-0.305
same,glycan array binding signal (z-score),Man(a1-6)Man,4.8
same,glycan array binding signal (z-score),Man(b1-4)GlcNAc,2.1
same,glycan array binding signal (z-score),MurNAc(b1-4)GlcNAc,-0.6
same,glycan array binding signal (z-score),Neu5Ac(a2-3)Gal,-0.54
same,glycan array binding signal (z-score),[19],-0.395
same,glycan array binding signal (z-score),[20],0.305
same,glycan array binding signal (z-score),[21],-0.401
same,glycan array binding signal (z-score),[22],0.038
same,glycan array binding signal (z-score),[23],-0.229
same,glycan array binding signal (z-score),[24],-0.441
same,glycan array binding signal (z-score),[25],0.014
